{
  "source": "PubChem BioAssay AID485297",
  "about": "(National Center for Advancing Translational Sciences (NCATS), 2010)",
  "note": "In all, about 320,000 compounds went through this assay and about 9,100 (2.8%) were called active. This list was built around the results that the source calls inconclusive (neither active nor inactive); the mix of calls is not that of the screen. The call rests on the fitted dose curve; in most records, active means well fitted activation curve with a large enough effect; inconclusive means small, poorly fitted or top-dose-only effect; inactive means no such curve, though single readings can be large or run the other way. Potencies of inconclusive entries are left out as doubtful fits. Potency means the concentration at half of the fitted maximal effect; tags describe the fitted curve by direction and shape.",
  "data": [
    {"assay": "qHTS Assay for Rab9 Promoter Activators; further: nearly all actives have a fitted effect of over 60% in size; on activation, negative = inhibition: % of control where 0% means no effect", "conditions": "Huh7 Rab9 promoter-luciferase reporter, luminescence, 24 h; series mostly up to 9.22 µM; activation, negative = inhibition: at the top concentration", "outline": "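Stable Rab9-luc Huh7, 1500 cells/well, 2 h settle; cmpd in DMSO, 24 h, 37 °C/5% CO2; luciferase reagent 10 min RT; luminescence.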", "values": [
      {"smiles": "Cc1ccc(OCC(=O)N2CCCCCCC2)cc1C", "Potency": "inconclusive [activator, single point]"},
      {"smiles": "OCC1(Cc2ccccc2F)CCCN(CC2CCCCC2)C1", "note": "(centres undefined)", "activation, negative = inhibition": "inactive: 0.216%"},
      {"smiles": "O=C(Nc1ccc(-c2cn3ccsc3n2)cc1)C1CCCC1", "Potency": "active: 3.16 µM"},
      {"smiles": "COc1ccc2[nH]c(=O)c(CN(C(=O)C(C)C)c3ccccc3OC)cc2c1", "activation, negative = inhibition": "inactive: -0.155%"},
      {"smiles": "COc1ccccc1CNC(=O)COC(=O)c1cccnc1SCC(=O)NCc1ccccc1OC", "Potency": "inconclusive [activator, partial curve]"},
      {"smiles": "COc1ccc(/C=C/C(=O)NC2CCCCCCC2)cc1S(=O)(=O)N1CCOCC1", "Potency": "inconclusive [activator, single point]"},
      {"smiles": "CC(C)CNC(=O)C(=O)N/N=C/c1cccs1", "Potency": "inconclusive [activator, partial curve]"},
      {"smiles": "Cc1ccc(NC(=O)C2CCCN(c3ncccn3)C2)cc1F", "note": "(centres undefined)", "Potency": "inconclusive [activator, partial curve]"},
      {"smiles": "Cc1ccc2nc(Nc3ccc(Cl)cc3)c3nncn3c2c1", "Potency": "inconclusive [activator, single point]"},
      {"smiles": "CC(C)N(CCCNC(=O)c1ccc(N2CCCC2=O)cc1)Cc1ccccc1", "Potency": "inconclusive [activator, single point]"},
      {"smiles": "Nc1c(C(=O)Nc2ccccc2F)sc2nc(-c3ccco3)ccc12", "Potency": "inconclusive [activator, single point]"},
      {"smiles": "Cc1c(Cl)cccc1NC(=S)NNS(=O)(=O)c1ccc([N+](=O)[O-])cc1", "activation, negative = inhibition": "inactive: 1.24%"},
      {"smiles": "CCOC(=O)CN1C(=O)S/C(=C/c2cc(C)n(-c3ccccn3)c2C)C1=O", "Potency": "active: 3.98 µM"},
      {"smiles": "Cc1ncoc1C(=O)Nc1cccc(Cl)c1", "Potency": "inconclusive [activator, partial curve]"},
      {"smiles": "O=C(Cc1ccccc1[N+](=O)[O-])NNC(=O)c1cccs1", "activation, negative = inhibition": "inactive: -2.5%"},
      {"smiles": "O=C(/C=C/c1ccccc1Cl)NC(=S)Nc1ccccc1C(=O)NC1CCCCC1", "Potency": "inconclusive [activator, single point]"},
      {"smiles": "S=c1[nH]nc(-c2cc3c(s2)-c2ccccc2CC3)o1", "Potency": "inconclusive [activator, single point]"},
      {"smiles": "O=C(Cc1ccccc1)Nc1ccc(N2CCCCC2)cc1", "Potency": "inconclusive [activator, partial curve]"},
      {"smiles": "CC(C)(C)C(=O)NC(=S)Nc1sc2c(c1C(N)=O)CCC2", "Potency": "inconclusive [activator, partial curve]"},
      {"smiles": "CCOC(=O)c1ccccc1NC1c2ccccc2C(=O)N1c1ccc(C)cn1", "note": "(centres undefined)", "Potency": "inconclusive [activator, partial curve]"},
      {"smiles": "COc1ccccc1C(=O)NNC(=O)c1cccc([N+](=O)[O-])c1", "Potency": "inconclusive [activator, single point]"},
      {"smiles": "CCc1ccc(Nc2nnc(SCC(=O)NCCN3C(=O)CSC3=O)s2)cc1", "Potency": "inconclusive [activator, partial curve]"},
      {"smiles": "Cc1cc(OCC(=O)Nc2ccncc2)ccc1Br", "activation, negative = inhibition": "inactive: -7.93%"},
      {"smiles": "O=C(Nc1ccc(N2CCCCC2)cc1)c1cncc(Br)c1", "Potency": "inconclusive [activator, partial curve]"},
      {"smiles": "C/C(=C\\c1ccc(Br)cc1)C(=O)c1c(C)cc(C)[nH]c1=O", "activation, negative = inhibition": "inactive: -1.24%"},
      {"smiles": "CCc1ccc(NC(=O)N2CCc3ccccc3C2)cc1", "Potency": "active: 2.24 µM"},
      {"smiles": "O=C(NCCCCc1ccccc1)Nc1ccc(F)cc1F", "Potency": "inconclusive [activator, partial curve]"},
      {"smiles": "O=C(CCS(=O)(=O)c1ccccc1)NC12CC3CC(CC(C3)C1)C2", "Potency": "active: 3.55 µM"},
      {"smiles": "O=C(Cn1ncc(N2CCCC2)c(Cl)c1=O)c1ccc(Cl)cc1", "Potency": "active: 1.41 µM"},
      {"smiles": "CCOc1ccccc1NC(=O)c1nnn(-c2ccc3c(c2)OCCO3)c1N", "Potency": "inconclusive [activator, partial curve]"},
      {"smiles": "Nc1nn(-c2ccccc2)c(N)c1N=Nc1cccc(F)c1", "Potency": "inconclusive [activator, full curve]"},
      {"smiles": "Cc1ccc(N2CN=C(c3ccccc3)NC2=S)cc1", "Potency": "inconclusive [activator, partial curve]"},
      {"smiles": "COc1ccc2nc(Nc3ccccc3)sc2c1", "Potency": "active: 1.58 µM"},
      {"smiles": "COc1ccc(CN(C(=O)c2cc3ccccc3oc2=O)C2CCS(=O)(=O)C2)cc1OC", "note": "(centres undefined)", "Potency": "inconclusive [activator, partial curve]"},
      {"smiles": "NS(=O)(=O)c1ccc(N=NN2CCCCC2)cc1", "Potency": "inconclusive [activator, partial curve]"},
      {"smiles": "Cc1ccc(NC2=C/C(=N/S(=O)(=O)c3cccs3)c3ccccc3C2=O)cc1", "Potency": "inconclusive [activator, partial curve]"},
      {"smiles": "C/C(=N/NC(=O)c1cccs1)c1ccc(N2CCOCC2)cc1", "Potency": "inconclusive [activator, partial curve]"},
      {"smiles": "COc1ccc(N(C(=O)c2cnccn2)C(C(=O)NCc2ccccc2)c2ccc(O)cc2)cc1", "note": "(centres undefined)", "Potency": "inconclusive [activator, single point]"},
      {"smiles": "c1ccc(N2CCN(c3nc4ccccc4[nH]3)CC2)nc1", "Potency": "inconclusive [activator, single point]"},
      {"smiles": "COc1ccc2nc(N3CCCCC3)c(C#N)cc2c1", "Potency": "active: 3.16 µM"},
      {"smiles": "CC(=O)Nc1ccc(O)c(-c2nc3ccccc3s2)c1", "Potency": "inconclusive [activator, single point]"},
      {"smiles": "O=C(N/N=C/c1ccc(-n2ccnc2)cc1)c1cccs1", "Potency": "inconclusive [activator, partial curve]"},
      {"smiles": "c1ccc(-c2n[nH]c(-c3ccccn3)n2)cc1", "Potency": "active: 3.55 µM"},
      {"smiles": "CSc1ccc(/C=N/NC(=O)c2ccccc2Cl)cc1", "Potency": "inconclusive [activator, single point]"},
      {"smiles": "Fc1ccc(Nc2nc(-c3ccncc3)cs2)cc1", "Potency": "inconclusive [activator, partial curve]"},
      {"smiles": "Cc1c(C(=O)NC2CCCCC2)oc2ccc(F)cc12", "Potency": "inconclusive [activator, partial curve]"},
      {"smiles": "COc1ccc(C(=O)Oc2ccc(/C=N/Nc3ccc(Cl)c(C(=O)O)c3)cc2OC)cc1", "Potency": "inconclusive [activator, partial curve]"},
      {"smiles": "Cc1cc(C)n(CCCNC(=O)c2ccc(C)c(S(=O)(=O)N3CCOCC3)c2)n1", "activation, negative = inhibition": "inactive: -1.87%"},
      {"smiles": "Nc1ccc2nc(-c3ccc(-c4nc5ccc(N)cc5[nH]4)cc3)[nH]c2c1", "activation, negative = inhibition": "inactive: -1.43%"},
      {"smiles": "CN(C)c1ccc(/C=C2/SC(=O)N(CCN=C3NS(=O)(=O)c4ccccc43)C2=O)cc1", "Potency": "inconclusive [activator, single point]"},
      {"smiles": "C(#CC1CCCC1)c1ccc2c(c1)COc1c3ccccc3nn1-2", "Potency": "active: 1 µM"},
      {"smiles": "CCOC(=O)Nc1ccc2nc(N3CCCCCC3)sc2c1", "Potency": "inconclusive [activator, full curve]"},
      {"smiles": "CCN1CCCC1CNCc1cccc(OC)c1OCc1ccc(F)cc1", "note": "(centres undefined)", "activation, negative = inhibition": "inactive: 0.175%"},
      {"smiles": "O=C(Nc1nc(-c2ccccc2)ns1)c1cccs1", "Potency": "inconclusive [activator, partial curve]"},
      {"smiles": "O=[N+]([O-])c1ccc(N/N=C/c2ccccc2)cc1", "Potency": "inconclusive [activator, partial curve]"},
      {"smiles": "Nn1c(Cc2cccc3ccccc23)nnc1SCc1c(F)cccc1Cl", "activation, negative = inhibition": "inactive: 1.54%"},
      {"smiles": "CCCOc1ccc(CNC(=O)Cc2cccs2)cc1", "Potency": "inconclusive [activator, partial curve]"},
      {"smiles": "O=C(/C=C/c1ccc([N+](=O)[O-])cc1)Nc1ncc([N+](=O)[O-])s1", "Potency": "active: 0.794 µM"},
      {"smiles": "CCN(CC)S(=O)(=O)c1cccc(-c2nnc(SCc3nc4ccccc4s3)o2)c1", "Potency": "inconclusive [activator, partial curve]"},
      {"smiles": "Cc1ccc(-c2nnc(NCc3nc4ccccc4[nH]3)c3ccccc23)cc1S(=O)(=O)N1CCCCC1", "activation, negative = inhibition": "inactive: -5.19%"},
      {"smiles": "COc1ccc(-c2nc3ccccc3n2OCC(=O)O)cc1", "activation, negative = inhibition": "inactive: 19%"},
      {"smiles": "O=C(NNC(=S)NC1CCCCC1)c1cccs1", "Potency": "inconclusive [activator, partial curve]"},
      {"smiles": "Cn1cccc1/C=N/N1CCN(c2ccccc2)CC1", "activation, negative = inhibition": "inactive: 14.3%"},
      {"smiles": "COc1ccc(C(=O)/C=C2/Sc3cc4c(cc3N2C)OCO4)cc1", "Potency": "inconclusive [activator, partial curve]"},
      {"smiles": "O=C(NCc1ccccc1)c1ccc2c(=O)[nH]c3c(C(=O)NCC4CCCO4)sc(=S)n3c2c1", "note": "(centres undefined)", "activation, negative = inhibition": "inactive: 5.24%"},
      {"smiles": "CN(Cc1ccccc1)C(=O)CC(=O)N(C)Cc1ccccc1", "Potency": "inconclusive [activator, partial curve]"},
      {"smiles": "C/C(N)=C(/C#N)C(=O)CSc1nnc(NC(C)C)s1", "Potency": "inconclusive [activator, single point]"},
      {"smiles": "O=C(Nc1ccc2c(c1)CCC2)c1ccc(Cl)nc1", "Potency": "inconclusive [activator, single point]"},
      {"smiles": "Cc1nn(Cc2ccc(F)cc2)c(C)c1NC(=O)c1cc2ncc(Br)cn2n1", "activation, negative = inhibition": "inactive: -11.3%"},
      {"smiles": "CCCC(=O)Nc1nnc(-c2ccc3c(c2)OCO3)s1", "Potency": "inconclusive [activator, partial curve]"},
      {"smiles": "CCc1ccc(Nc2nnc(SCC(=O)Nc3cccc(S(=O)(=O)NC4=NCCCCC4)c3)s2)cc1", "Potency": "inconclusive [activator, single point]"},
      {"smiles": "Cc1ccccc1OCCCn1c(=O)sc2ccccc21", "Potency": "inconclusive [activator, partial curve]"},
      {"smiles": "Nc1ccc(N=Nc2ccccc2)c(N)n1", "activation, negative = inhibition": "inactive: 11.9%"},
      {"smiles": "Cc1cccc(NC(=O)C2C3CCCCC32)c1", "note": "(centres undefined)", "Potency": "inconclusive [activator, partial curve]"}
    ]}
  ]
}
